Measurements from patent US4839344A, “Polypeptide compounds having growth hormone releasing activity” (Eastman Kodak Company, priority 1987, dated 1989).
Where “and” joins values, the source holds several entries; their conditions need not be identical. Equal values may be shown once. Part of at least one peptide drawing is inferred or uncertain, most often the ends. Square brackets hold non-standard residues; d marks the D form. Peptide text beside a SMILES is read from it. Dopa = N[C@@H](Cc1ccc(O)c(O)c1)C(=O)O; Lys(iPr) = CC(C)NCCCC[C@H](N)C(=O)O; 3Pal = N[C@@H](Cc1cccnc1)C(=O)O; Met(O) = CS(=O)CC[C@H](N)C(=O)O; dPhg = N[C@@H](C(=O)O)c1ccccc1; Abu = CC[C@H](N)C(=O)O

Experiments:
[1] = tested on: growth hormone (GH) release; test: In Vivo GH Release in Rats (serum GH by RIA); parameters: species or system immature female Sprague-Dawley rats; conditions: rat serum, i.v., mean ± SEM, six rats
[2] = tested on: growth hormone (GH) release; test: In Vivo Growth Hormone Release Study - Lambs (plasma GH by RIA); parameters: species or system female lambs; conditions: for GH Maximum Peak Height / GH Area Under Curve: lamb plasma, i.v. infusion; for GH Area Under Curve: one hour after administration
[3] = tested on: growth hormone (GH) release; test: In Vivo Growth Hormone Release Study - Beef Calves (plasma GH by RIA); parameters: species or system female beef calves; conditions: for GH Maximum Peak Height / GH Area Under Curve: beef calf plasma, i.v. infusion; for GH Area Under Curve: three hours after treatment
[4] = tested on: growth hormone (GH) release; test: In Vivo Growth Hormone Release Study - Cows (serum GH by RIA); parameters: species or system non-lactating Holstein cows; conditions: i.v., 3 μg per kg body weight, mean ± SEM
[5] = total dose 10 μg, sacrificed 10 minutes after final injection
[6] = total dose 30 μg, sacrificed 10 minutes after final injection
[7] = total dose 20 (ng as printed), sacrificed 30 minutes after final injection
[8] = 1 μg/kg (as trifluoroacetic acid salt)
[9] = 10 μg/kg (as trifluoroacetic acid salt)
[10] = 30 μg/kg (as trifluoroacetic acid salt)
[11] = total dose 3 μg, sacrificed 10 minutes after final injection

| SMILES | GH Released by Compound in Column A [1, 5] | GH Released by Compound in Column A [1, 6] [ng/mL] | GH Released by Compound in Column A [1, 7] | GH Released by Compound in Column A [1, 11] [ng/mL] | further results |
| --- | --- | --- | --- | --- | --- |
| C[C@H](NC(=O)[C@@H](NC(=O)CNC(=O)[C@H](C)NC(=O)[C@@H](N)Cc1ccc(O)cc1)[C@@H](C)O)C(=O)N[C@@H](Cc1c[nH]cn1)C(=O)N[C@H](Cc1c[nH]c2ccccc12)C(=O)N[C@@H](C)C(=O)N[C@@H](Cc1c[nH]c2ccccc12)C(=O)N[C@H](Cc1ccccc1)C(=O)N[C@@H](CCCCN)C(N)=O [Compound 8866, Tyr--Ala--Gly--Thr--Ala--His--DTrp--Ala--Trp--DPhe--Lys--NH2] (H-YAGTAH[dW]AW[dF]K-NH2) | 177 ± 38 ng/mL and 292 ± 42 ng/mL | 144 ± 38 | 32 ± 8 ng/mL | – | – |
| C[C@H](NC(=O)[C@@H](Cc1c[nH]c2ccccc12)NC(=O)[C@H](Cc1c[nH]cn1)NC(=O)[C@@H](N)Cc1c[nH]c2ccccc12)C(=O)N[C@@H](Cc1c[nH]c2ccccc12)C(=O)N[C@H](Cc1ccccc1)C(=O)N[C@@H](CCCCN)C(N)=O [Compound 10957, Trp--His--DTrp--Ala--Trp--DPhe--Lys--NH2] (H-WH[dW]AW[dF]K-NH2) | 127 ± 23 ng/mL | 268 ± 58 | – | – | – |
| C[C@H](N)C(=O)N[C@@H](Cc1c[nH]cn1)C(=O)N[C@H](Cc1c[nH]c2ccccc12)C(=O)N[C@@H](C)C(=O)N[C@@H](Cc1c[nH]c2ccccc12)C(=O)N[C@H](Cc1ccccc1)C(=O)N[C@@H](CCCCN)C(N)=O [Compound 8114, Ala--His--DTrp--Ala--Trp--DPhe--Lys--NH2] (H-AH[dW]AW[dF]K-NH2) | – | – | – | – | GH Maximum Peak Height [2, 8]: 2 ng/mL; GH Area Under Curve [2, 8]: 67 ng·min/mL; GH Maximum Peak Height [2, 9]: 7 ng/mL; GH Area Under Curve [2, 9]: 228 ng·min/mL; GH Maximum Peak Height [2, 10]: 38 ng/mL; GH Area Under Curve [2, 10]: 1.086 ng·min/mL; release and elevation of growth hormone levels in the blood (in words) ([2]; lambs, Table 5): promote the release and elevation of growth hormone levels; GH Maximum Peak Height [3, 8]: 16 ng/mL; GH Area Under Curve [3, 8]: 897 ng·min/mL; GH Maximum Peak Height [3, 9]: 66 ng/mL; GH Area Under Curve [3, 9]: 2300 ng·min/mL; GH Maximum Peak Height [3, 10]: 99 ng/mL; GH Area Under Curve [3, 10]: 4811 ng·min/mL; release and elevation of growth hormone levels in the blood (in words) ([3]; beef calves, Table 6): promote the release and elevation of growth hormone levels; blood serum growth hormone level [4]: 8.60 ± 2.50 ng/mL |
| C[C@H](NC(=O)[C@@H](Cc1c[nH]c2ccccc12)NC(=O)[C@H](Cc1c[nH]cn1)NC(=O)[C@@H](N)CC[S+](C)[O-])C(=O)N[C@@H](Cc1c[nH]c2ccccc12)C(=O)N[C@H](Cc1ccccc1)C(=O)N[C@@H](CCCCN)C(N)=O (stereo partly shown) [Compound 18988, Met(O)--His--DTrp--Ala--Trp--DPhe--Lys--NH2] (H-[Met(O)]H[dW]AW[dF]K-NH2) | 65 ± 17 ng/mL and 90 ± 25 ng/mL | – | – | – | – |
| CC(C)[C@H](N)C(=O)N[C@@H](Cc1c[nH]cn1)C(=O)N[C@H](Cc1c[nH]c2ccccc12)C(=O)N[C@@H](C)C(=O)N[C@@H](Cc1c[nH]c2ccccc12)C(=O)N[C@H](Cc1ccccc1)C(=O)N[C@@H](CCCCN)C(N)=O [Compound 10321, Val--His--DTrp--Ala--Trp--DPhe--Lys--NH2] (H-VH[dW]AW[dF]K-NH2) | – | – | 156 ± 39 ng/mL and 93 ± 25 ng/mL | 129 ± 13 | GH Released by Compound in Column A ([1]; total dose 1 μg, sacrificed 10 minutes after final injection): 11 ± 2 ng/mL |
| CC[C@H](N)C(=O)N[C@@H](Cc1c[nH]cn1)C(=O)N[C@H](Cc1c[nH]c2ccccc12)C(=O)N[C@@H](C)C(=O)N[C@@H](Cc1c[nH]c2ccccc12)C(=O)N[C@H](Cc1ccccc1)C(=O)N[C@@H](CCCCN)C(N)=O [Compound 9020, Abu--His--DTrp--Ala--Trp--DPhe--Lys--NH2] (H-[Abu]H[dW]AW[dF]K-NH2) | 85 ± 24 ng/mL | – | 72 ± 8 ng/mL | – | – |
| CC(C)NCCCC[C@H](NC(=O)[C@@H](Cc1ccccc1)NC(=O)[C@H](Cc1c[nH]c2ccccc12)NC(=O)[C@H](C)NC(=O)[C@@H](Cc1c[nH]c2ccccc12)NC(=O)[C@H](Cc1c[nH]cn1)NC(=O)[C@H](C)N)C(N)=O [Compound 11839, Ala--His--DTrp--Ala--Trp--DPhe--iLys--NH2] (H-AH[dW]AW[dF][Lys(iPr)]-NH2) | 59 ± 18 ng/mL | 246 ± 63 | – | 30 ± 7 | – |
| C[C@H](N)C(=O)N[C@@H](Cc1c[nH]cn1)C(=O)N[C@H](Cc1c[nH]c2ccccc12)C(=O)N[C@@H](C)C(=O)N[C@@H](Cc1c[nH]c2ccccc12)C(=O)N[C@@H](C(=O)N[C@@H](CCCCN)C(N)=O)c1ccccc1 [Compound 9887, Ala--His--DTrp--Ala--Trp--DPgl--Lys--NH2] (H-AH[dW]AW[dPhg]K-NH2) | 11 ± 1 ng/mL | – | – | – | – |
| C[C@H](NC(=O)[C@@H](N)CCCCN)C(=O)N[C@@H](Cc1c[nH]cn1)C(=O)N[C@H](Cc1c[nH]c2ccccc12)C(=O)N[C@@H](C)C(=O)N[C@@H](Cc1c[nH]c2ccccc12)C(=O)N[C@H](Cc1ccccc1)C(=O)N[C@@H](CCCCN)C(N)=O [Compound 11603, Lys--Ala--His--DTrp--Ala--Trp--DPhe--Lys--NH2] (H-KAH[dW]AW[dF]K-NH2) | 82 ± 19 ng/mL | 135 ± 38 | 105 ± 14 ng/mL | 41 ± 5 | – |
| C[C@H](NC(=O)[C@@H](Cc1c[nH]c2ccccc12)NC(=O)[C@H](Cc1c[nH]cn1)NC(=O)[C@@H](N)Cc1c[nH]cn1)C(=O)N[C@@H](Cc1c[nH]c2ccccc12)C(=O)N[C@H](Cc1ccccc1)C(=O)N[C@@H](CCCCN)C(N)=O [Compound 12392, His--His--DTrp--Ala--Trp--DPhe--Lys--NH2] (H-HH[dW]AW[dF]K-NH2) | 479 ± 64 ng/mL | – | 100 ± 16 ng/mL | – | – |
| C[C@H](N)C(=O)N[C@@H](Cc1c[nH]cn1)C(=O)N[C@H](Cc1c[nH]c2ccccc12)C(=O)N[C@@H](C)C(=O)N[C@@H](Cc1cccnc1)C(=O)N[C@H](Cc1ccccc1)C(=O)N[C@@H](CCCCN)C(N)=O [Compound 8323, Ala--His--DTrp--Ala--Pal--DPhe--Lys--NH2] (H-AH[dW]A[3Pal][dF]K-NH2) | – | – | – | – | GH Released by Compound in Column A ([1]; total dose 100 μg, sacrificed 10 minutes after final injection): 18 ± 1 ng/mL |
| C[C@H](NC(=O)[C@@H](Cc1c[nH]c2ccccc12)NC(=O)[C@H](Cc1c[nH]cn1)NC(=O)[C@@H](N)CCCCN)C(=O)N[C@@H](Cc1c[nH]c2ccccc12)C(=O)N[C@H](Cc1ccccc1)C(=O)N[C@@H](CCCCN)C(N)=O [Compound 11009, Lys--His--DTrp--Ala--Trp--DPhe--Lys--NH2] (H-KH[dW]AW[dF]K-NH2) | 217 ± 64 ng/mL | – | – | 57 ± 9 | – |
| C[C@H](NC(=O)[C@@H](N)Cc1ccc(O)c(O)c1)C(=O)N[C@@H](Cc1c[nH]cn1)C(=O)N[C@H](Cc1c[nH]c2ccccc12)C(=O)N[C@@H](C)C(=O)N[C@@H](Cc1c[nH]c2ccccc12)C(=O)N[C@H](Cc1ccccc1)C(=O)N[C@@H](CCCCN)C(N)=O [Compound 10765, DOPA--Ala--His--DTrp--Ala--Trp--DPhe--Lys--NH2] (H-[Dopa]AH[dW]AW[dF]K-NH2) | – | – | 30 ± 7 ng/mL | – | – |
